Data published in the supplement of paper PMC3334620.
The full ranking holds about 33,000 sequences; the median of “E-score (-0.5 to 0.5)” is about -0.04, and the highest 2% start at about 0.36. Some of the results follow.

These sequences were tested against T1, Hmlalpha2 (UniProt P0CY09) (assay: PBM E-score (8-mer binding enrichment) (E-score (-0.5 to 0.5)); higher = stronger / more preferred TF binding; most listed sequences are background and not binding sites). Conditions: protein concentration: 200 nM; construct: GST-full length.
T1 sequence: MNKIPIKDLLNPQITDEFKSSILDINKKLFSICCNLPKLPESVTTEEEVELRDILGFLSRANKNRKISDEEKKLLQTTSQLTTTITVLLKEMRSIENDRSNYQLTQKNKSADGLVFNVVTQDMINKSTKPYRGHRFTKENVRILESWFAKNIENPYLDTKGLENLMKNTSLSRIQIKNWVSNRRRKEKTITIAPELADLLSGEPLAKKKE
Summary of the method: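 The E-score, a modified Wilcoxon-Mann-Whitney statistic, was computed by the Universal PBM Analysis Suite for every ungapped eight-base word pooled with its reverse complement. Scans behind it were normalised with masliner after bound GST-tagged yeast transcription factors were detected with fluorescent anti-GST. The proteins, at about 100-200 nM, had been applied to universal all-10-mer Agilent arrays made double-stranded by primer extension.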

Sequence	PBM E-score
AATTGATG	0.168
AAGGTCTC	-0.0732
ATCTAAAC	-0.0363
GCAACGAA	0.15
TTCGCAAA	0.115
AACCCCTG	-0.348
ACTGCCAA	-0.0531
AGTTGATC	-0.055
AGGAGAAT	-0.143
ACGAACGA	0.206
AGAATATC	-0.0864
GTTTGTGA	0.0957
AGACATGG	0.21
AGACGTGA	0.0591
ATCAATGG	-0.229
CGTCATGC	-0.00095
CCGATAGG	-0.181
AACTGAGC	-0.299
AAACTTAA	0.256
CCCGTTCC	-0.201
AGTTAGGG	-0.259
ATTACGAC	0.229
GAGTCCCA	-0.266
AGAACACC	0.0993
CTACATTA	0.229

Sequence	PBM E-score
CACAAACA	0.239
ATCTAATG	-0.077
CCATTAGA	-0.289
ACACAAGA	0.291
AATCTTCC	-0.115
GAGATTCC	-0.218
AGAAGTCT	-0.0753
ATGTTAGG	0.165
CACACGCG	0.264
CCTTCAGA	-0.166
CCGGACGA	-0.0406
AGACCGGG	-0.272
CCCGGGCA	-0.285
CTCGAATC	-0.206
CATGTCCG	-0.0437
CTACCTCA	-0.172
AGCGCTAG	-0.0896
ACGCAAGG	0.185
CACCGGTC	-0.275
AAATCCTT	-0.0827
AGGGTTGA	-0.0378
CAGTAGGA	-0.195
TACCGGCA	0.0228
ATAACAGA	0.259
AACAAAAC	0.288

Sequence	PBM E-score
ACCGACTG	-0.317
GCCGTGGA	-0.216
CGACACTA	-0.00101
AGAACAAC	0.0835
CATTTATA	0.113
CTGGTTCA	0.0589
AAGCCCTT	-0.211
CATACCCA	0.182
AGGGGACG	-0.25
AATAAGTA	0.137
GGGGTTCA	-0.279
AGTCCAAC	-0.0711
AGTCTTGC	0.0218
ATCTTTCA	0.0227
GCGCCCTA	-0.256
AGATTTGA	0.0464
GTGTACGA	0.212
ACAAGCAC	0.157
AAAAAGTG	0.0712
CCGGTCGC	-0.136
ATAGTGAT	-0.0723
CCTGAAAA	-0.0981
GCCCAGAC	-0.34
ACTCTTAC	0.167
AAGTGTAG	0.0742

Sequence	PBM E-score
CGGTCCGA	-0.256
TAGAAAGA	-0.075
GACGCAGC	0.00318
AATAGGAG	-0.0208
ACTAGGAG	-0.0601
AATTGAAG	0.0126
AGAAGCGC	-0.0481
CCAACTAC	0.0725
CCGCTCAG	-0.0603
TATTAATA	0.173
CCATCGAG	0.048
CTCCTCGA	-0.141
ACGGACAC	0.117
CAACACGG	0.386
CTTCGCGC	0.00199
GACACAGA	-0.00939
AAGGGACT	-0.252
CAGCCTAA	-0.0547
AAGACTAT	-0.0495
AAGATTCA	0.0956
CCACGCCG	-0.15
AATGGTTA	0.168
CGATCCTC	-0.16
TCCATAAA	-0.149
ACGTACTC	0.107

Sequence	PBM E-score
CCCTATAA	-0.167
GTCTCCAC	-0.178
AAGGCAGA	-0.13
CTCTGGTC	-0.143
CAGCGATA	-0.186
GATCCAGA	-0.0146
AGATAATC	0.0024
CTGGACTA	-0.119
CAGGTTCA	0.0208
CCAAGGAG	-0.276
GCGATCTA	0.0689
CGTGTGAA	0.347
ATCGAGAC	-0.0984
ATCGTGCA	0.247
AGCCATAT	-0.24
GTTCATAA	0.0277
GTCTGTTA	0.218
AATCTACC	0.132
GACACCTA	-0.204
ATTGATAG	0.0987
AGGGCGGC	-0.229
ACACTTCT	0.207
CAGCAGTC	-0.215
CCATATAC	0.109
ATATAACA	0.384

Sequence	PBM E-score
CTATGAAA	-0.148
TGCGTACA	0.34
CGCTGAGA	-0.139
TACAACAA	0.343
ACTGTCCG	-0.162
GCCAGAAA	-0.0992
AACCTTAC	0.0858
CTGTGGTA	0.00157
ACTTTGGA	0.136
CTGGGAAC	0.0389
GGTTTAAC	0.279
GCATCCAC	-0.0842
ATGCGTTG	0.205
ACTCTCTC	-0.0496
GACTTAAA	-1e-05
ACTGTTTG	0.0875
AGTATACA	0.322
ACAAGAAT	0.232
CAGAGCAG	-0.0684
ACGGCCCG	-0.151
AATTGTAC	0.242
GAGTGCGA	-0.329
CAACATAC	0.303
CCCAACGC	0.0787
ACTTCACA	0.176

Sequence	PBM E-score
CTTAAGCC	-0.0732
CTGCCACC	-0.252
ACAAGCGC	0.0928
ACCGAATC	7e-05
GCATGTCC	-0.0024
ACGCATCT	0.155
CAGTCGCA	-0.206
TGTAGACA	0.341
CGGCTCAG	-0.0972
CATGATAA	0.322
CTGTTCTA	0.102
ATCGTGTA	0.475
CTCGGAAC	-0.021
ACGCATAG	0.0324
CACACCTA	0.0464
CGGGGCCA	-0.254
CAATTATG	0.117
ACTGGCAT	-0.206
ACGCATAT	0.136
TATTACGA	0.285
CCTCGTTC	-0.142
ATATTGAT	-0.0428
